# Measurements published in the supplement of paper PMC8728848.
# Some of the results follow.
# B1: Spy0252 (Streptococcus pyogenes), Q9A1I9_STRP1 (protein)
# chain: MNMKKLASLAMLGASVLGLAACGGKSQKEAGASKSDTAKTEITWWAFPVFTQEKAEDGVGTYEKKLIAAFEKANPEIKVKLETIDFTSGPEKITTAIEAGTAPDVLFDAPGRIIQYGKNGKLADLNDLFTEEFTKDVNNDKLIQASKAGDTAYMYPISSAPFYMALNKKMLKDAGVLDLVKEGWTTDDFEKVLKALKDKGYNPGSFFANGQGGDQGPRAFFANLYSSHITDDKVTKYTTDDANSIKAMTKISNWIKDGLMMNGSQYDGSADIQNFANGQTSFTILWAPAQPGIQAKLLEASKVDYLEIPFPSDDGKPELEYLVNGFAVFNNKDEQKVAASKTFIQFIADDKEWGPKNVVRTGAFPVRTSYGDLYKDKRMEKIAEWTKFYSPYYNTIDGFAEMRTLWFPMVQAVSNGDEKPEDALKAFTEKANKTIKKTQ
# Legend:
# Experiment in all cases: glycan array binding signal (z-score within array); higher = stronger binding
# Conditions in all cases: glycan notation: IUPAC condensed, linker removed
# Neu5Ac(a2-6)GalNAc = molecular target: Neu5Ac(a2-6)GalNAc
# Method in brief: (§1)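 Glycan array data were curated from 3228 arrays in the Consortium for Functional Glycomics database and kept only where the protein sequence was available. Glycan names were converted to IUPAC-condensed notation, and columns mapping to the same glycan were averaged. The binding signal is a within-array Z-score, averaged across arrays of the same protein sequence at different concentrations or buffers and across linkers. Negative Z-scores can be read as non-binding.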
# [1] = molecular target: Neu5Ac(a2-6)GalNAc(b1-4)GlcNAc
# Method in brief: as §1
# [2] = molecular target: Neu5Ac(a2-6)GlcNAc(b1-4)GlcNAc
# Method in brief: as §1
# [3] = molecular target: Neu5Ac(a2-6)GlcNAc(b1-4)GlcNAc(b1-4)GlcNAc
# Method in brief: as §1
# Neu5Ac(a2-8)Neu5Ac = molecular target: Neu5Ac(a2-8)Neu5Ac
# Method in brief: as §1
# [4] = molecular target: Neu5Ac(a2-8)Neu5Ac(a2-3)Gal(b1-4)Glc
# Method in brief: as §1
# [5] = molecular target: Neu5Ac(a2-8)Neu5Ac(a2-3)[GalNAc(b1-4)]Gal(b1-4)Glc
# Method in brief: as §1
# [6] = molecular target: Neu5Ac(a2-8)Neu5Ac(a2-8)Neu5Ac
# Method in brief: as §1
# [7] = molecular target: Neu5Ac(a2-8)Neu5Ac(a2-8)Neu5Ac(a2-3)Gal(b1-4)Glc
# Method in brief: as §1
# [8] = molecular target: Neu5Ac(a2-8)Neu5Ac(a2-8)Neu5Ac(a2-3)[GalNAc(b1-4)]Gal(b1-4)Glc
# Method in brief: as §1
# [9] = molecular target: Neu5Ac(a2-8)Neu5Ac(a2-8)Neu5Ac(a2-8)Neu5Ac(a2-3)[GalNAc(b1-4)]Gal(b1-4)Glc
# Method in brief: as §1
# [10] = molecular target: Neu5Ac(b2-6)Gal(b1-4)GlcNAc
# Method in brief: as §1
# Neu5Ac(b2-6)GalNAc = molecular target: Neu5Ac(b2-6)GalNAc
# Method in brief: as §1
# [11] = molecular target: Neu5Ac9Ac(a2-3)Gal(b1-3)GlcNAc
# Method in brief: as §1
# [12] = molecular target: Neu5Ac9Ac(a2-3)Gal(b1-4)GlcNAc
# Method in brief: as §1
# [13] = molecular target: Neu5Ac9Ac(a2-6)Gal(b1-4)GlcNAc
# Method in brief: as §1
# [14] = molecular target: Neu5Gc(a2-3)Gal(b1-3)GlcNAc
# Method in brief: as §1
# [15] = molecular target: Neu5Gc(a2-3)Gal(b1-3)[Fuc(a1-4)]GlcNAc
# Method in brief: as §1
# Neu5Gc(a2-3)Gal(b1-4)Glc = molecular target: Neu5Gc(a2-3)Gal(b1-4)Glc
# Method in brief: as §1
# [16] = molecular target: Neu5Gc(a2-3)Gal(b1-4)GlcNAc
# Method in brief: as §1
# [17] = molecular target: Neu5Gc(a2-3)Gal(b1-4)[Fuc(a1-3)]GlcNAc
# Method in brief: as §1
# [18] = molecular target: Neu5Gc(a2-6)Gal(b1-4)GlcNAc
# Method in brief: as §1
# Neu5Gc(a2-6)GalNAc = molecular target: Neu5Gc(a2-6)GalNAc
# Method in brief: as §1
# [19] = molecular target: Neu5Gc(b2-6)Gal(b1-4)GlcNAc
# Method in brief: as §1
binder,measurement,setting,value
B1,glycan array binding signal (z-score),Neu5Ac(a2-6)GalNAc,1.2
same,glycan array binding signal (z-score),[1],-0.281
same,glycan array binding signal (z-score),[2],-0.264
same,glycan array binding signal (z-score),[3],-0.269
same,glycan array binding signal (z-score),Neu5Ac(a2-8)Neu5Ac,-0.268
same,glycan array binding signal (z-score),[4],7.23
same,glycan array binding signal (z-score),[5],-0.253
same,glycan array binding signal (z-score),[6],-0.27
same,glycan array binding signal (z-score),[7],7.09
same,glycan array binding signal (z-score),[8],-0.266
same,glycan array binding signal (z-score),[9],-0.065
same,glycan array binding signal (z-score),[10],-0.273
same,glycan array binding signal (z-score),Neu5Ac(b2-6)GalNAc,-0.278
same,glycan array binding signal (z-score),[11],-0.262
same,glycan array binding signal (z-score),[12],-0.274
same,glycan array binding signal (z-score),[13],-0.248
same,glycan array binding signal (z-score),[14],-0.265
same,glycan array binding signal (z-score),[15],-0.269
same,glycan array binding signal (z-score),Neu5Gc(a2-3)Gal(b1-4)Glc,5.2
same,glycan array binding signal (z-score),[16],-0.274
same,glycan array binding signal (z-score),[17],-0.247
same,glycan array binding signal (z-score),[18],-0.261
same,glycan array binding signal (z-score),Neu5Gc(a2-6)GalNAc,1.27
same,glycan array binding signal (z-score),[19],-0.274
